# ± gives the standard deviation of the averaged measurements. Laboratory Escherichia coli strains with one amino-acid change in an essential protein, pooled on minimal glucose agar with carbenicillin or gentamicin at twice the control MIC (plus kanamycin and chloramphenicol for the plasmids), 48 h. Fold change of barcode share against drug-free plates; higher = less susceptible. Active = above 20 in both replicates (the paper's putatively resistant). '<' = one read or none on drug, '>' = one read or none on a drug-free plate. Shares are relative, so most strains fall below 1 when a few take over. Listed are strains with at least 15 reads on both drug-free plates, and hits; most hits rest on fewer reference reads. Replicate rank correlation about 0.5. Edits are read from barcodes.
# B1: lpxH; numbered along this chain (parent)
# chain: MATLFIADLHLCVEEPAITAGFLRFLAGEARKADALYILGDLFEAWIGDDDPNPLHRKMAAAIKAVSDSGVPCYFIHGNRDFLLGKRFARESGMTLLPEEKVLELYGRRVLIMHGDTLCTDDAGYQAFRAKVHKPWLQTLFLALPLFVRKRIAARMRANSKEANSSKSLAIMDVNQNAVVSAMEKHQVQWLIHGHTHRPAVHELIANQQPAFRVVLGAWHTEGSMVKVTADDVELIHFPF
# Variants of: B1
# Experiment: barcode share on antibiotic plates over drug-free plates; higher = less susceptible
# Conditions: with Escherichia coli (laboratory strain)
# Method: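 A pool of E. coli strains, each edited to carry one amino-acid change in an essential protein, was grown for 48 h on minimal glucose agar with or without antibiotic; strain barcodes were sequenced; mean of two replicates.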
# [1] = antibiotic: carbenicillin, 2× MIC (3.1 µg/mL)
# [2] = antibiotic: gentamicin, 2× MIC (MIC 0.45 µg/mL)
Variant,fold change of barcode share [1],fold change of barcode share [2]
MATLFIADLHLCVEEPAITAGFLRFLAGEARKADALYILGDLFEAWIGDDDPNPLHRKMAAAIKAVSDSGVPCYFIHGNRDFLLGKRFARESGMTLLPEEKVLELYGRRVLQMHGDTLCTDDAGYQAFRAKVHKPWLQTLFLALPLFVRKRIAARMRANSKEANSSKSLAIMDVNQNAVVSAMEKHQVQWLIHGHTHRPAVHELIANQQPAFRVVLGAWHTEGSMVKVTADDVELIHFPF [I112Q],0.3 ± 0.1,< 0.0023
MATLFIADLHLCVEEPAITAGFLRFLAGEARKADALYILGDLFEAWIGDDDPNPLHRKMAAAIKAVSDSGVPCYFIHGNRDFLLGKRFARESGMTLLPEEKVLELYGRRVLAMHGDTLCTDDAGYQAFRAKVHKPWLQTLFLALPLFVRKRIAARMRANSKEANSSKSLAIMDVNQNAVVSAMEKHQVQWLIHGHTHRPAVHELIANQQPAFRVVLGAWHTEGSMVKVTADDVELIHFPF [I112A],,0.00971 ± 0.0094
MATLFIADLHLCVEEPAITAGFLRFLAGEARKADALYILGDLFEAWIGDDDPNPLHRKMAAAIKAVSDSGVPCYFIHGNRDFLLGKRFARESGMTLLPEEKVLELYGRRVLWMHGDTLCTDDAGYQAFRAKVHKPWLQTLFLALPLFVRKRIAARMRANSKEANSSKSLAIMDVNQNAVVSAMEKHQVQWLIHGHTHRPAVHELIANQQPAFRVVLGAWHTEGSMVKVTADDVELIHFPF [I112W],0.274 ± 0.03,0.0293 ± 0.03
MATLFIADLHLCVEEPAITAGFLRFLAGEARKADALYILGDLFEAWIGDDDPNPLHRKMAAAIKAVSDSGVPCYFIHGNRDFLLGKRFARESGMTLLPEEKVLELYGRRVLPMHGDTLCTDDAGYQAFRAKVHKPWLQTLFLALPLFVRKRIAARMRANSKEANSSKSLAIMDVNQNAVVSAMEKHQVQWLIHGHTHRPAVHELIANQQPAFRVVLGAWHTEGSMVKVTADDVELIHFPF [I112P],3.05 ± 3.5,0.00545 ± 0.0015
MATLFIADLHLCVEEPAITAGFLRFLAGEARKADALYILGDLFEAWIGDDDPNPLHRKMAAAIKAVSDSGVPCYFIHGNRDFLLGKRFARESGMTLLPEEKVLELYGRRVLIPHGDTLCTDDAGYQAFRAKVHKPWLQTLFLALPLFVRKRIAARMRANSKEANSSKSLAIMDVNQNAVVSAMEKHQVQWLIHGHTHRPAVHELIANQQPAFRVVLGAWHTEGSMVKVTADDVELIHFPF [M113P],0.432 ± 0.23,0.00526 ± 0.0029
MATLFIADLHLCVEEPAITAGFLRFLAGEARKADALYILGDLFEAWIGDDDPNPLHRKMAAAIKAVSDSGVPCYFIHGNRDFLLGKRFARESGMTLLPEEKVLELYGRRVLIWHGDTLCTDDAGYQAFRAKVHKPWLQTLFLALPLFVRKRIAARMRANSKEANSSKSLAIMDVNQNAVVSAMEKHQVQWLIHGHTHRPAVHELIANQQPAFRVVLGAWHTEGSMVKVTADDVELIHFPF [M113W],0.306 ± 0.008,< 0.00787
MATLFIADLHLCVEEPAITAGFLRFLAGEARKADALYILGDLFEAWIGDDDPNPLHRKMAAAIKAVSDSGVPCYFIHGNRDFLLGKRFARESGMTLLPEEKVLELYGRRVLIQHGDTLCTDDAGYQAFRAKVHKPWLQTLFLALPLFVRKRIAARMRANSKEANSSKSLAIMDVNQNAVVSAMEKHQVQWLIHGHTHRPAVHELIANQQPAFRVVLGAWHTEGSMVKVTADDVELIHFPF [M113Q],0.274 ± 0.1,0.00688 ± 0.0049
MATLFIADLHLCVEEPAITAGFLRFLAGEARKADALYILGDLFEAWIGDDDPNPLHRKMAAAIKAVSDSGVPCYFIHGNRDFLLGKRFARESGMTLLPEEKVLELYGRRVLIAHGDTLCTDDAGYQAFRAKVHKPWLQTLFLALPLFVRKRIAARMRANSKEANSSKSLAIMDVNQNAVVSAMEKHQVQWLIHGHTHRPAVHELIANQQPAFRVVLGAWHTEGSMVKVTADDVELIHFPF [M113A],0.299 ± 0.0037,< 0.00474
MATLFIADLHLCVEEPAITAGFLRFLAGEARKADALYILGDLFEAWIGDDDPNPLHRKMAAAIKAVSDSGVPCYFIHGNRDFLLGKRFARESGMTLLPEEKVLELYGRRVLIDHGDTLCTDDAGYQAFRAKVHKPWLQTLFLALPLFVRKRIAARMRANSKEANSSKSLAIMDVNQNAVVSAMEKHQVQWLIHGHTHRPAVHELIANQQPAFRVVLGAWHTEGSMVKVTADDVELIHFPF [M113D],,< 0.00409
MATLFIADLHLCVEEPAITAGFLRFLAGEARKADALYILGDLFEAWIGDDDPNPLHRKMAAAIKAVSDSGVPCYFIHGNRDFLLGKRFARESGMTLLPEEKVLELYGRRVLIMHGDTLCTDDAGYQAFRAKVHKPWLQTLFLALPLFVRKRIAARMRANSKEANSSKSLAIMDVNQNAVVSAMEKHQVQWLIHGHTHRPAVHELIANQQPAFRVVWGAWHTEGSMVKVTADDVELIHFPF [L216W],0.29 ± 0.12,
MATLFIADLHLCVEEPAITAGFLRFLAGEARKADALYILGDLFEAWIGDDDPNPLHRKMAAAIKAVSDSGVPCYFIHGNRDFLLGKRFARESGMTLLPEEKVLELYGRRVLIMHGDTLCTDDAGYQAFRAKVHKPWLQTLFLALPLFVRKRIAARMRANSKEANSSKSLAIMDVNQNAVVSAMEKHQVQWLIHGHTHRPAVHELIANQQPAFRVVDGAWHTEGSMVKVTADDVELIHFPF [L216D],0.307 ± 0.1,0.0181 ± 0.011
MATLFIADLHLCVEEPAITAGFLRFLAGEARKADALYILGDLFEAWIGDDDPNPLHRKMAAAIKAVSDSGVPCYFIHGNRDFLLGKRFARESGMTLLPEEKVLELYGRRVLIMHGDTLCTDDAGYQAFRAKVHKPWLQTLFLALPLFVRKRIAARMRANSKEANSSKSLAIMDVNQNAVVSAMEKHQVQWLIHGHTHRPAVHELIANQQPAFRVPLGAWHTEGSMVKVTADDVELIHFPF [V215P],0.355 ± 0.15,0.00554 ± 0.0029
MATLFIADLHLCVEEPAITAGFLRFLAGEARKADALYILGDLFEAWIGDDDPNPLHRKMAAAIKAVSDSGVPCYFIHGNRDFLLGKRFARESGMTLLPEEKVLELYGRRVQIMHGDTLCTDDAGYQAFRAKVHKPWLQTLFLALPLFVRKRIAARMRANSKEANSSKSLAIMDVNQNAVVSAMEKHQVQWLIHGHTHRPAVHELIANQQPAFRVVLGAWHTEGSMVKVTADDVELIHFPF [L111Q],0.277 ± 0.037,0.00619 ± 0.0033
MATLFIADLHLCVEEPAITAGFLRFLAGEARKADALYILGDLFEAWIGDDDPNPLHRKMAAAIKAVSDSGVPCYFIHGNRDFLLGKRFARESGMTLLPEEKVLELYGRRVWIMHGDTLCTDDAGYQAFRAKVHKPWLQTLFLALPLFVRKRIAARMRANSKEANSSKSLAIMDVNQNAVVSAMEKHQVQWLIHGHTHRPAVHELIANQQPAFRVVLGAWHTEGSMVKVTADDVELIHFPF [L111W],1.86 ± 0.23,0.00631 ± 0.0018

# Source: the supplement of paper PMC11876631
